The record followed here is the supplement of paper PMC8792480.

The list shows a part of the results. Single values are uncertain, as repeats are few or missing.

The test system of the assay is NCI-H460. In words: cell-surface PD-L1 MFI ratio relative to cisplatin alone (isotype-subtracted); higher = higher PD-L1 surface expression. As to conditions: inducer: cisplatin 4 uM; 10 µM; 24 h. How it is done:
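A549 and H460 NSCLC cells were treated with each library drug at 10 uM, then with radiation (8 Gy) or cisplatin (4 uM), and incubated for 24 h. Cell-surface PD-L1 was measured by flow cytometry as an MFI ratio: (MFI drug+inducer - MFI isotype)/(MFI inducer alone - MFI isotype). Hits were defined as ratio < 0.75.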
In the case of `COc1cc([C@@H]2c3cc4c(cc3[C@H](O)[C@H]3COC(=O)[C@@H]23)OCO4)cc(OC)c1OC` [Picropodophyllin (PPP)], the “cell-surface PD-L1 MFI ratio” value was inactive: 1.51.

For `COC(=O)[C@@H](N)CCCNC(=N)N[N+](=O)[O-]`, the “cell-surface PD-L1 MFI ratio” value was inactive: 1.41.

Regarding `CN1CCN(c2ccc([N+](=O)[O-])c3no[n+]([O-])c23)CC1`, the “cell-surface PD-L1 MFI ratio” value was inactive: 0.968.
